From the supplement of paper PMC9446081
About 220 (0.56%) of roughly 39,000 compounds showed activity. Some of the results follow.

system: Escherichia coli K-12 BW25113; test: relative growth (OD600 normalised to plate interquartile mean) (fraction); higher = less growth inhibition, active = 0.2 or less; conditions: 50 µM; LB; incubation time: overnight (16-24 h)
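Further: static incubation at 37 °C against the wild-type strain, values averaged over two biological replicates.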

Row | Structure (SMILES) | relative growth
1 | COc1ccccc1C#Cc1ccc2c(c1)O[C@@H](CN(C)Cc1cccnc1)[C@H](C)CN([C@@H](C)CO)S2(=O)=O | inactive: 1.02
2 | C[C@H]1CCCCO[C@@H](CN(C)C(=O)Nc2cccc3ccccc23)[C@@H](C)CN([C@@H](C)CO)C(=O)c2cc(NC(=O)c3ccncc3)ccc2O1 | inactive: 0.965
3 | C[C@H](CO)N1C[C@H](C)[C@@H](CN(C)Cc2ccncc2)OCCCC[C@H](C)Oc2ccc(NC(=O)Nc3cccc4ccccc34)cc2C1=O | inactive: 0.983
4 | C/C=C/c1ccc2c(c1)O[C@@H](CN(C)Cc1ccc(C(=O)O)cc1)[C@H](C)CN([C@@H](C)CO)S2(=O)=O | inactive: 1.01
5 | COc1ccccc1C#Cc1ccc2c(c1)O[C@@H](CN(C)Cc1cccnc1)[C@H](C)CN([C@H](C)CO)S2(=O)=O | inactive: 1.04
6 | NC(=O)c1ccccc1F | inactive: 1.04
7 | NC(=O)c1ncn([C@@H]2O[C@H](CO)[C@@H](O)[C@H]2O)n1 | inactive: 0.914
8 | C[C@H]1CN([C@@H](C)CO)C(=O)c2cc(Br)cnc2O[C@H]1CN(C)S(=O)(=O)c1ccc(F)cc1 | inactive: 0.988
9 | Cc1noc(C)c1NC(=O)N(C)C[C@@H]1Oc2c(NC(=O)Nc3ccc(C(F)(F)F)cc3)cccc2C(=O)N([C@@H](C)CO)C[C@@H]1C | inactive: 0.943
10 | COc1ccc(S(=O)(=O)N(C)C[C@@H]2Oc3c(NS(=O)(=O)c4cn(C)cn4)cccc3C(=O)N([C@H](C)CO)C[C@@H]2C)cc1 | inactive: 0.996
11 | Cc1cncc2cccc(S(=O)(=O)N[C@H]3CN[C@@H](COC(=O)NCCOCCOCCN)C3)c12 | inactive: 0.917
12 | COc1ccc(S(=O)(=O)N(C)C[C@H]2OCCCC[C@H](C)Oc3ccc(NS(=O)(=O)c4ccc(Cl)cc4)cc3C(=O)N([C@H](C)CO)C[C@@H]2C)cc1 | inactive: 1.03
13 | C[C@H](CO)N1C[C@H](C)[C@@H](CN(C)C(=O)Nc2ccc(F)cc2)OCc2ccccc2-c2ccccc2C1=O | inactive: 0.975
14 | O=C(CCCCCCC(=O)N/N=C/c1cccc(B(O)O)c1)NO | inactive: 1
15 | Cc1ccc(S(=O)(=O)N(C)C[C@@H]2OCCCC[C@H](C)Oc3ccc(NC(=O)NC4CCCCC4)cc3C(=O)N([C@@H](C)CO)C[C@@H]2C)cc1 | inactive: 1.03
16 | C[C@H](CO)N1C[C@H](C)[C@@H](CN(C)Cc2ccc(C(=O)O)cc2)OCCCC[C@H](C)Oc2ccc(NC(=O)Nc3ccc4c(c3)OCO4)cc2C1=O | inactive: 0.95
17 | C[C@@H]1CCCCO[C@H](CN(C)C(=O)CCC(F)(F)F)[C@H](C)CN([C@H](C)CO)C(=O)c2cc(NC(=O)CCC(F)(F)F)ccc2O1 | inactive: 1.01
18 | C[C@H]1CCCCO[C@H](CN(C)C(=O)Cc2ccccc2)[C@@H](C)CN([C@@H](C)CO)C(=O)c2cc(NC(=O)CCC(F)(F)F)ccc2O1 | inactive: 0.991
19 | C[C@@H]1CN([C@H](C)CO)C(=O)c2cccc(NC(=O)c3cnccn3)c2O[C@@H]1CN(C)S(=O)(=O)c1ccccc1 | inactive: 1.01
20 | COc1ccc(CN(C)C[C@@H]2OCCCC[C@H](C)Oc3ccc(NC(=O)Nc4c(C)noc4C)cc3C(=O)N([C@@H](C)CO)C[C@H]2C)cc1 | inactive: 1.01

Row | Structure (SMILES) | relative growth
21 | C[C@H](CO)N1C[C@H](C)[C@H](CN(C)CC2CCCCC2)OCCCC[C@H](C)Oc2ccc(NC(=O)c3ccncc3)cc2C1=O | inactive: 0.987
22 | OC[C@H]1O[C@@H](OCc2ccccc2)[C@H](O)[C@@H](O)[C@@H]1O | inactive: 1.01
23 | C[C@H](CO)N1C[C@H](C)[C@H](CN(C)S(C)(=O)=O)Oc2ncc(C#CC(C)(C)O)cc2C1=O | inactive: 0.999
24 | C[C@H]1CN([C@@H](C)CO)C(=O)c2cc(NS(=O)(=O)c3ccc(F)cc3)ccc2O[C@H]1CN(C)Cc1ccc(-c2ccccc2)cc1 | inactive: 0.98
25 | C#CCCC(=O)NO | inactive: 0.982
26 | C[C@H](CO)N1C[C@H](C)[C@@H](CN(C)Cc2ccc(-c3ccccc3)cc2)Oc2c(NS(=O)(=O)c3ccc(F)cc3)cccc2C1=O | inactive: 1.01
27 | N=C(N=C(N)N)Nc1cccc(Cl)c1 | inactive: 1.01
28 | COc1ccccc1C#Cc1cnc2c(c1)C(=O)N([C@@H](C)CO)C[C@H](C)[C@H](CN(C)C(=O)CC1CC1)O2 | inactive: 1.01
29 | C[C@H]1CN([C@@H](C)CO)C(=O)c2cc(NS(=O)(=O)c3ccc(F)cc3)ccc2O[C@H]1CN(C)S(=O)(=O)c1cn(C)cn1 | inactive: 0.971
30 | CCS(=O)(=O)Nc1ccc2c(c1)C(=O)N(C)C[C@@H](OC)[C@H](C)CN(Cc1ccccn1)[C@H](C)CO2 | inactive: 0.979
31 | CN(C)CC(=O)N[C@H]1CC[C@@H](CC(=O)NCCN2CCCCC2)O[C@H]1CO | inactive: 0.96
32 | O=C(C[C@H]1CC[C@H]2[C@@H](COC[C@@H](O)CN2S(=O)(=O)c2ccccc2F)O1)NCc1ccccc1F | inactive: 0.981
33 | C[C@@H]1CCCCO[C@@H](CN(C)C(=O)c2ccccc2)[C@@H](C)CN([C@H](C)CO)C(=O)c2cc(NC(=O)NC3CCCCC3)ccc2O1 | inactive: 1.01
34 | O=C(C[C@H]1CC[C@H]2[C@@H](COC[C@H](O)CN2C(=O)c2ccccc2)O1)NCCCN1CCOCC1 | inactive: 1.02
35 | COc1ccc(S(=O)(=O)Nc2ccc3c(c2)C(=O)N([C@H](C)CO)C[C@H](C)[C@@H](CN(C)S(=O)(=O)c2ccc(F)cc2)O3)cc1 | inactive: 0.996
36 | O=c1nc(Nc2ccccc2)cn[nH]1 | inactive: 0.97
37 | COc1ccc(S(=O)(=O)N(C)C[C@@H]2OCCCC[C@H](C)Oc3ccc(NS(C)(=O)=O)cc3C(=O)N([C@H](C)CO)C[C@@H]2C)cc1 | inactive: 1.01
38 | C[C@H]1CCCCO[C@H](CN(C)C(=O)Nc2ccccc2)[C@@H](C)CN([C@@H](C)CO)C(=O)c2cc(NC(=O)c3ccncc3)ccc2O1 | inactive: 0.98
39 | CCS(=O)(=O)N1CC[C@]2(CC1)CN(Cc1ccccc1OC)[C@H](CO)c1c2c2ccc(cc2n1C)OC | inactive: 1.03
